Data: PubChem BioAssay AID1645882 (National Center for Advancing Translational Sciences (NCATS), 2021)
About 120 (0.75%) of roughly 16,000 compounds were called active. Inconclusive results (about 4%) are left out. Calls follow the shape of the dose curve; as a rule, active = well fitted inhibition curve with a large enough effect; inconclusive = small, poorly fitted or top-dose-only effect; inactive = no such curve, though single readings can be large or run the other way. The list shows a part of the results.

Biological target: Rap guanine nucleotide exchange factor 3 (Homo sapiens) (UniProt O95398)
UniProt O95398, sequence (O95398 whole entry, looked up): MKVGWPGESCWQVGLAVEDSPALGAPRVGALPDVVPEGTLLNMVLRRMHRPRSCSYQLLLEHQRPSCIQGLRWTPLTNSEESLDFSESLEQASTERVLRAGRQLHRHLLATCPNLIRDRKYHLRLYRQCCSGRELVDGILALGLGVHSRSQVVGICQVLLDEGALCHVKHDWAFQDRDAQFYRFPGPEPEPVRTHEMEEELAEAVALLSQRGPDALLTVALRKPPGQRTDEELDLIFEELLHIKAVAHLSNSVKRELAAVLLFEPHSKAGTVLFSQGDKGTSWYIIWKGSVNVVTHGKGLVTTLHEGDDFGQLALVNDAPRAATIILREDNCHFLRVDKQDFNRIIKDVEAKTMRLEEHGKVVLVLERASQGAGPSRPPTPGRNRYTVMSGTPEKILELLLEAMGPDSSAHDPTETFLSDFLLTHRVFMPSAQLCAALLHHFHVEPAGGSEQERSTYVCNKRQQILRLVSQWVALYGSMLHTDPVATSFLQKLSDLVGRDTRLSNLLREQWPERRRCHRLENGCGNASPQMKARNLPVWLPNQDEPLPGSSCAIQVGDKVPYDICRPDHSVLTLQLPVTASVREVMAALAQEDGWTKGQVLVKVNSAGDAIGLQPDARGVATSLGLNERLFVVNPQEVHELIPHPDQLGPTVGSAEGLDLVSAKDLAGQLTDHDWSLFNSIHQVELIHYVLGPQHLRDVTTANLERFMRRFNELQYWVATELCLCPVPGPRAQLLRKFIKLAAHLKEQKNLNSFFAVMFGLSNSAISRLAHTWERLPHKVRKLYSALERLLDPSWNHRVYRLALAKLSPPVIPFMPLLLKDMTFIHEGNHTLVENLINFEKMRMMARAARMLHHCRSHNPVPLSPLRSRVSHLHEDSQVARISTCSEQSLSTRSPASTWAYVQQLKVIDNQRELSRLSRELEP
Test: Validation qHTS for antagonist of cAMP-regulated guanine nucleotide exchange factor 3 (EPAC1);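 also: plate controls were DMSO for no effect and ATA control for full effect; nearly all actives have a fitted effect of over 75% in size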
Settings: EPAC1 Rap1B-BODIPY-GDP exchange, fluorescence; series mostly up to 150 µM; activity change, negative = inhibition: at the top concentration
Method in brief: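 Nucleotide exchange followed as fluorescence loss when BODIPY-GDP leaves Rap1B (480 nm excitation, 540 nm emission), read at 5 min intervals over 30 min. Reaction: 100 nM EPAC1, 250 nM RAP1B-BODIPY-GDP, 50 uM GDP; ATA and DMSO define normalization.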

Activity change, negative = inhibition, inactive:
O=c1c(CCc2ccccc2)nc2cnc(N3CCNCC3)nc2n1C1CC1 5.92%
N#Cc1cccc(CN2CCC(=O)N([C@H](CO)Cc3ccccc3)CC2)c1 7.48%
COc1ccc(CNc2ncncc2-c2ccccc2OC)c(OC)c1 7.6%
COc1ccc2c(c1)OC(C)CN(CCC(=O)NCC1OCCc3ccccc31)C2 (stereo not drawn) -1.63%
CCNC(=O)/C=C/c1cccc(Br)c1 5.69%
NC1CCN(c2nc3c(cc2F)c(=O)c(C(=O)O)cn3-c2ccc(F)cc2F)C1 (stereo not drawn) 15.8%
NCCO/C=C/[C@H](N)C(=O)O 6.71%
C=Cc1ccc(C(=O)N2CCc3c(cnc(C)c3CNC(=O)c3ccc4c(c3)OCO4)C2)cc1 -1.77%
N#CCCn1c(=O)c(-c2ccc(Cl)cc2)nc2cnc(Oc3ccccc3)nc21 10.8%
CCCCC(C=O)NC(=O)C(CC(C)C)NC(=O)OCc1ccccc1 (stereo not drawn) -9.71%
O=C(c1cnn(-c2nccc(-c3ccco3)n2)c1C1CC1)N1CCCCC1c1cccnc1 (stereo not drawn) 10.8%
CC(=O)Oc1cccc(C)c1 4.06%
COc1ccc(Cl)cc1-c1cc2c(c(OC)c1)OCCN(Cc1cccn1-c1nccs1)C2 22%
c1cncc(-c2ccc3ncnc(N4CCNCC4)c3c2)c1 10.3%
CCCOc1ccccc1-c1nc2n[nH]nc2c(=O)[nH]1
CN(C)c1ccc(-c2cncnc2NCCN2CCOCC2)cc1 -2.77%
COc1ccccc1N1CCN(C[C@@H]2CN3C(=O)N(C)c4ccccc4C3=N2)CC1 11.4%
Cc1cc2c(cc1C)N[C@]1(C[C@H]3CCCC(=O)N4CC[C@@H](C1)[C@@H]34)C(=NC1CCCCC1)N2 16.7%
O=Cc1cc2ccccc2cc1O 15.1%
COc1ccc(C2CC(=O)c3c(O)cc(OC4OC(COC5OC(C)C(O)C(O)C5O)C(O)C(O)C4O)cc3O2)cc1O (stereo not drawn) 7.5%
O=C(O)CO.[NH2-].[NH2-].[Pt+2] 8.35%
Cn1cc(-c2nc3cnc(N4CCNCC4)nc3n(CCC#N)c2=O)c2ccccc21 -1.43%
COc1cccc(C(=O)NCCN2CCN(c3ccc(Cl)cc3)CC2)c1 -0.462% [at 75.8 µM]
Cc1cccc(-c2cccc(C(=O)N3CCc4c(cnc(C)c4CNC(=O)c4cncs4)C3)c2)c1 -0.992%
COc1ccc2[nH]cc(CCNc3ncncc3-c3cccnc3)c2c1 -17.2%
N#Cc1ccc(CN2CCC3(CC2)CCN(C(=O)c2csnn2)CC3)cc1 17.1%
COC1=C(OC)C(=O)C(C/C=C(\C)CC/C=C(\C)CC/C=C(\C)CC/C=C(/C)CC/C=C(\C)CC/C=C(\C)CC/C=C(\C)CC/C=C(\C)CC/C=C(\C)CCC=C(C)C)=C(C)C1=O 11.7%
COc1cc(-c2noc(C)c2C#Cc2nccn2C)cc(OC)c1OC 8.12%
